The list shows a part of the results.
Columns and labels:
Experiment in all cases: glycan array binding signal (z-score within array); higher = stronger binding
Conditions in all cases: glycan notation: IUPAC condensed, linker removed
[1] = biological target: Man(a1-3)[Man(a1-6)]Man(a1-6)[Man(a1-3)]Man
Summary of the method: (§1)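 Arrays were curated from the Consortium for Functional Glycomics database, 3228 in total, and kept only where the protein sequence was available. Binding is expressed as a within-array Z-score. This score was averaged across arrays of the same protein sequence at different concentrations or buffers and across linkers, and negative values can be read as non-binding.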

[2] = biological target: Man(a1-3)[Man(a1-6)]Man(a1-6)[Man(a1-3)]Man(b1-4)GlcNAc(b1-4)GlcNAc
Summary of the method: as §1

[3] = biological target: Man(a1-3)[Man(a1-6)]Man(b1-4)GlcNAc(b1-4)GlcNAc
Summary of the method: as §1

Man(a1-6)Man = biological target: Man(a1-6)Man
Summary of the method: as §1

Man(b1-4)GlcNAc = biological target: Man(b1-4)GlcNAc
Summary of the method: as §1

Neu5Ac(a2-3)Gal = biological target: Neu5Ac(a2-3)Gal
Summary of the method: as §1

[4] = biological target: Neu5Ac(a2-3)Gal(b1-3)GalNAc
Summary of the method: as §1

[5] = biological target: Neu5Ac(a2-3)Gal(b1-3)GalNAc(b1-3)Gal(a1-4)Gal(b1-4)Glc
Summary of the method: as §1

[6] = biological target: Neu5Ac(a2-3)Gal(b1-3)GalNAc(b1-3)Gal(b1-4)GlcNAc
Summary of the method: as §1

[7] = biological target: Neu5Ac(a2-3)Gal(b1-3)GalNAc(b1-4)[Neu5Ac(a2-3)]Gal(b1-4)Glc
Summary of the method: as §1

[8] = biological target: Neu5Ac(a2-3)Gal(b1-3)GalNAc6S
Summary of the method: as §1

[9] = biological target: Neu5Ac(a2-3)Gal(b1-3)GlcNAc
Summary of the method: as §1

[10] = biological target: Neu5Ac(a2-3)Gal(b1-3)GlcNAc(b1-3)Gal(b1-3)GlcNAc
Summary of the method: as §1

[11] = biological target: Neu5Ac(a2-3)Gal(b1-3)GlcNAc6S
Summary of the method: as §1

[12] = biological target: Neu5Ac(a2-3)Gal(b1-3)[Fuc(a1-4)]GlcNAc
Summary of the method: as §1

[13] = biological target: Neu5Ac(a2-3)Gal(b1-3)[Fuc(a1-4)]GlcNAc(b1-3)Gal(b1-4)[Fuc(a1-3)]GlcNAc
Summary of the method: as §1

[14] = biological target: Neu5Ac(a2-3)Gal(b1-3)[Neu5Ac(a2-3)Gal(b1-4)]GlcNAc
Summary of the method: as §1

[15] = biological target: Neu5Ac(a2-3)Gal(b1-3)[Neu5Ac(a2-6)]GalNAc
Summary of the method: as §1

Neu5Ac(a2-3)Gal(b1-4)Glc = biological target: Neu5Ac(a2-3)Gal(b1-4)Glc
Summary of the method: as §1

[16] = biological target: Neu5Ac(a2-3)Gal(b1-4)GlcNAc
Summary of the method: as §1

[17] = biological target: Neu5Ac(a2-3)Gal(b1-4)GlcNAc(b1-2)Man(a1-3)[GlcNAc(b1-2)Man(b1-4)GlcNAc(b1-2)Man(a1-6)]Man(b1-4)GlcNAc(b1-4)GlcNAc
Summary of the method: as §1

[18] = biological target: Neu5Ac(a2-3)Gal(b1-4)GlcNAc(b1-2)Man(a1-3)[Neu5Ac(a2-6)Gal(b1-4)GlcNAc(b1-2)Man(a1-6)]Man(b1-4)GlcNAc(b1-4)GlcNAc
Summary of the method: as §1

[19] = biological target: Neu5Ac(a2-3)Gal(b1-4)GlcNAc(b1-3)Gal(b1-3)GlcNAc
Summary of the method: as §1

[20] = biological target: Neu5Ac(a2-3)Gal(b1-4)GlcNAc(b1-3)Gal(b1-4)GlcNAc
Summary of the method: as §1

[21] = biological target: Neu5Ac(a2-3)Gal(b1-4)GlcNAc(b1-3)Gal(b1-4)GlcNAc(b1-3)Gal(b1-4)GlcNAc
Summary of the method: as §1

[22] = biological target: Neu5Ac(a2-3)Gal(b1-4)GlcNAc(b1-3)Gal(b1-4)[Fuc(a1-3)]GlcNAc
Summary of the method: as §1

[23] = biological target: Neu5Ac(a2-3)Gal(b1-4)GlcNAc(b1-6)[Gal(b1-3)]GalNAc
Summary of the method: as §1

[24] = biological target: Neu5Ac(a2-3)Gal(b1-4)GlcNAc(b1-6)[Neu5Ac(a2-3)Gal(b1-3)]GalNAc
Summary of the method: as §1

[25] = biological target: Neu5Ac(a2-3)Gal(b1-4)GlcNAc6S
Summary of the method: as §1

[26] = biological target: Neu5Ac(a2-3)Gal(b1-4)[Fuc(a1-3)]GlcNAc
Summary of the method: as §1

[27] = biological target: Neu5Ac(a2-3)Gal(b1-4)[Fuc(a1-3)]GlcNAc(b1-3)Gal
Summary of the method: as §1

[28] = biological target: Neu5Ac(a2-3)Gal(b1-4)[Fuc(a1-3)]GlcNAc(b1-3)Gal(b1-4)GlcNAc
Summary of the method: as §1

[29] = biological target: Neu5Ac(a2-3)Gal(b1-4)[Fuc(a1-3)]GlcNAc(b1-3)Gal(b1-4)[Fuc(a1-3)]GlcNAc(b1-3)Gal(b1-4)[Fuc(a1-3)]GlcNAc
Summary of the method: as §1

[30] = biological target: Neu5Ac(a2-3)Gal(b1-4)[Fuc(a1-3)]GlcNAc(b1-6)[Gal(b1-3)]GalNAc
Summary of the method: as §1

[31] = biological target: Neu5Ac(a2-3)Gal(b1-4)[Fuc(a1-3)]GlcNAc6S
Summary of the method: as §1

[32] = biological target: Neu5Ac(a2-3)Gal6S(b1-4)GlcNAc
Summary of the method: as §1

[33] = biological target: Neu5Ac(a2-3)Gal6S(b1-4)[Fuc(a1-3)]GlcNAc
Summary of the method: as §1

Neu5Ac(a2-3)GalNAc = biological target: Neu5Ac(a2-3)GalNAc
Summary of the method: as §1

[34] = biological target: Neu5Ac(a2-3)GalNAc(b1-4)GlcNAc
Summary of the method: as §1

[35] = biological target: Neu5Ac(a2-3)[GalNAc(b1-4)]Gal(b1-4)Glc
Summary of the method: as §1

[36] = biological target: Neu5Ac(a2-3)[GalNAc(b1-4)]Gal(b1-4)GlcNAc
Summary of the method: as §1

[37] = biological target: Neu5Ac(a2-3)[Neu5Ac(a2-6)]GalNAc
Summary of the method: as §1

Neu5Ac(a2-6)Gal = biological target: Neu5Ac(a2-6)Gal
Summary of the method: as §1

Neu5Ac(a2-6)Gal(b1-4)Glc = biological target: Neu5Ac(a2-6)Gal(b1-4)Glc
Summary of the method: as §1

[38] = biological target: Neu5Ac(a2-6)Gal(b1-4)GlcNAc
Summary of the method: as §1

B1: SLR2P3F12 (Tachypleus tridentatus), TAL2_TACTR (protein)
chain: MEKGTPPTHDSDNWMGRAKKIGNGGWNQFQFLFFDPNGYLYAVSKDKLYKASPPQSDTDNWIARATEIGSGGWSGFKSLFFHPNGYLYAVHGQRLYKALPPVSNQD
glycan array binding signal (z-score) [1]: -0.286 | glycan array binding signal (z-score) [2]: -0.097 | glycan array binding signal (z-score) [3]: 0.138 | glycan array binding signal (z-score) (Man(a1-6)Man): -0.338 | glycan array binding signal (z-score) (Man(b1-4)GlcNAc): -0.531 | glycan array binding signal (z-score) (Neu5Ac(a2-3)Gal): -0.415 | glycan array binding signal (z-score) [4]: 0.414 | glycan array binding signal (z-score) [5]: -0.245 | glycan array binding signal (z-score) [6]: -0.408 | glycan array binding signal (z-score) [7]: -0.145 | glycan array binding signal (z-score) [8]: -0.182 | glycan array binding signal (z-score) [9]: -0.317 | glycan array binding signal (z-score) [10]: -0.5 | glycan array binding signal (z-score) [11]: -0.219 | glycan array binding signal (z-score) [12]: 0.152 | glycan array binding signal (z-score) [13]: -0.269 | glycan array binding signal (z-score) [14]: -0.22 | glycan array binding signal (z-score) [15]: -0.28 | glycan array binding signal (z-score) (Neu5Ac(a2-3)Gal(b1-4)Glc): -0.36 | glycan array binding signal (z-score) [16]: -0.473 | glycan array binding signal (z-score) [17]: -0.394 | glycan array binding signal (z-score) [18]: -0.166 | glycan array binding signal (z-score) [19]: -0.298 | glycan array binding signal (z-score) [20]: -0.519 | glycan array binding signal (z-score) [21]: -0.465 | glycan array binding signal (z-score) [22]: -0.129 | glycan array binding signal (z-score) [23]: 0.443 | glycan array binding signal (z-score) [24]: 0.799 | glycan array binding signal (z-score) [25]: -0.263 | glycan array binding signal (z-score) [26]: 1.16 | glycan array binding signal (z-score) [27]: 0.101 | glycan array binding signal (z-score) [28]: -0.203 | glycan array binding signal (z-score) [29]: 0.353 | glycan array binding signal (z-score) [30]: 2.75 | glycan array binding signal (z-score) [31]: 0.052 | glycan array binding signal (z-score) [32]: -0.293 | glycan array binding signal (z-score) [33]: -0.353 | glycan array binding signal (z-score) (Neu5Ac(a2-3)GalNAc): -0.375 | glycan array binding signal (z-score) [34]: 0.435 | glycan array binding signal (z-score) [35]: -0.517 | glycan array binding signal (z-score) [36]: -0.511 | glycan array binding signal (z-score) [37]: -0.296 | glycan array binding signal (z-score) (Neu5Ac(a2-6)Gal): -0.276 | glycan array binding signal (z-score) (Neu5Ac(a2-6)Gal(b1-4)Glc): -0.125 | glycan array binding signal (z-score) [38]: -0.317

From the supplement of paper PMC8728848
